No constants are given. Whether binding was seen depends on the method and setting. For part of these data: Binding seen in cells or lysates may run through a third protein. Some binding calls cover weakened binding; strength is not graded here. For part of these data: Sequences can lack the tags named with a protein.
What was measured:
[1] = molecular target: T1, myc-tagged full-length Nde1 (mouse) (UniProt Q9CZA6); experiment: co-IP; 293T cells co-transfected; lysis in 150 mM NaCl, 50 mM Tris pH 7.5, 0.1% TX100, 1 mM DTT; immunoprecipitation with anti-myc 9E10 and protein A/G sepharose, immunoblot with anti-Flag, anti-EGFP or a Dmd antibody
T1 sequence: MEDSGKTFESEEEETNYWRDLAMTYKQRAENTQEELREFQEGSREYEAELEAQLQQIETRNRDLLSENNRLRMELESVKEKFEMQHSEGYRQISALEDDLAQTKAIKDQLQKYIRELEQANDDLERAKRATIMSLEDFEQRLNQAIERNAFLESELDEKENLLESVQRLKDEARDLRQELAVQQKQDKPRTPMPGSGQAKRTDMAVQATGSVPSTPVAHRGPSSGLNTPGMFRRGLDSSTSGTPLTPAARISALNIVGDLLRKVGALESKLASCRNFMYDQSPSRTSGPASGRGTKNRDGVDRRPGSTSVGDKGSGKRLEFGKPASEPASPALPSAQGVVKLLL

[2] = molecular target: T2, myc-tagged truncated Nde1 C1, aa232–344 (mouse) (UniProt Q9CZA6); experiment: as above
T2 sequence: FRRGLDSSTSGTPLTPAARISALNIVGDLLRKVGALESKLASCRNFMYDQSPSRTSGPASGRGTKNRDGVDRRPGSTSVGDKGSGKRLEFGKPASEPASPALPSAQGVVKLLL

[3] = molecular target: T3, Nde1 (yeast two-hybrid bait) (mouse) (UniProt Q9CZA6); experiment: two-hybrid; screen of a mouse E9.5–10.5 whole embryo yeast two-hybrid library for Nde1 associated proteins; performed as described in ref. 14
T3 sequence: T1 sequence

[4] = molecular target: Flag tagged full-length Utrn (mouse) (UniProt E9Q6R7); experiment: co-IP; 293T cells co-transfected; lysis in 150 mM NaCl, 50 mM Tris pH 7.5, 0.1% TX100, 1 mM DTT; immunoprecipitation with anti-Flag antibody and protein A/G sepharose, immunoblot with anti-EGFP
[5] = molecular target: T4, GST-Dmd C-terminal fusion protein (I3458-M3678) (mouse) (UniProt P11531); experiment: pull-down; GST-Dmd C-terminal fusion proteins purified from bacteria on glutathione-agarose, incubated with protein extractions from EGFP-Nde1 transfected 293T cells; immunoblot with anti-GFP; only the target purified
T4 sequence: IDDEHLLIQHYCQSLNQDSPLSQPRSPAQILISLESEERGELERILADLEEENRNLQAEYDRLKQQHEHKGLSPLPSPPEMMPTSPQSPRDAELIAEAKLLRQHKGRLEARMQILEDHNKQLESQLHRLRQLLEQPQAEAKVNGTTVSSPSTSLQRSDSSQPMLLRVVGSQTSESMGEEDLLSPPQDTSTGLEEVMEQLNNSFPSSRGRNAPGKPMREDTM

Flag tagged full-length Utrn (from UniProt E9Q6R7 1-3430)
binding [1]: binds
binding [2]: binds

Full-length Flag-Dmd (from UniProt P11531 1-3678)
binding [1]: binds

B1: Utrophin yeast two-hybrid clone, amino acids 3173 to 3311 (domain or fragment, UniProt E9Q6R7 3173-3311)
chain: EHYDPSQSPQLFHDDTHSRIEQYATRLAQMERTNGSFLTDSSSTTGSVEDEHALIQQYCQTLGGESPVSQPQSPAQILKSVEREERGELERIIADLEEEQRNLQVEYEQLKEQHLRRGLPVGSPPDSIVSPHHTSEDSE
binding [3]: binds

B2: GFP tagged-Nde1 (protein, UniProt Q9CZA6 1-344)
chain: T1 sequence
binding [4]: binds
binding [5]: binds

B3: EGFP-tagged C-terminal fragment of Dmd, DmdC1 (aa 3458–3678) (domain or fragment, UniProt P11531 3458-3678)
chain: T4 sequence
binding [1]: binds

B4: EGFP-tagged C-terminal fragment of Utrn, UtrnC (aa 3173–3311) (domain or fragment, UniProt E9Q6R7 3173-3311)
chain: B1 chain
binding [1]: binds

B5: GFP tagged LIS1 (protein, UniProt P63005 1-410)
chain: MVLSQRQRDELNRAIADYLRSNGYEEAYSVFKKEAELDMNEELDKKYAGLLEKKWTSVIRLQKKVMELESKLNEAKEEFTSGGPLGQKRDPKEWIPRPPEKYALSGHRSPVTRVIFHPVFSVMVSASEDATIKVWDYETGDFERTLKGHTDSVQDISFDHSGKLLASCSADMTIKLWDFQGFECIRTMHGHDHNVSSVAIMPNGDHIVSASRDKTIKMWEVQTGYCVKTFTGHREWVRMVRPNQDGTLIASCSNDQTVRVWVVATKECKAELREHEHVVECISWAPESSYSSISEATGSETKKSGKPGPFLLSGSRDKTIKMWDVSTGMCLMTLVGHDNWVRGVLFHSGGKFILSCADDKTLRVWDYKNKRCMKTLNAHEHFVTSLDFHKTAPYVVTGSVDQTVKVWECR
binding [4]: no binding
